Data: the supplement of paper PMC12217912
The list shows a part of the results. The full chains were built here from the parent and the listed change. Values near 0.05 are background.

B1: TEV protease; numbered along this chain (parent)
chain: MGESLFKGPRDYNPISSSICHLTNESDGHTTSLYGIGFGPFIITNKHLFRRNNGTLVVQSLHGVFKVKDTTTLQQHLVDGRDMIIIRMPKDFPPFPQKLKFREPQREERICLVTTNFQTKSMSSMVSDTSCTFPSGDGIFWKHWIQTKDGQCGSPLVSTRDGFIVGIHSASNFTNTNNYFTSVPKNFMELLTNQEAQQWVSGWRLNADSVLWGGHKVFMVKPEEPFQPVKEATQL

Variants of: B1
Test: raw area under fraction-flipped curve 0-4 h after induction (AUC4h, not background-subtracted), DNA-recorder readout of cleavage of the substrate (dimensionless); higher = more cleavage of the substrate by the protease variant
Conditions: temperature: 34 °C; time window: 0-4 h after rhamnose induction
Experimental: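 In vivo DNA recorder in E. coli TOP10(DE3) ΔrhaA at 34 °C. Each TEVp single-site mutant (parent TEVp 0) is paired with a single-site variant of the 7-mer TEVs (canonical ENLYFQ|S). The substrate sits between flexible linkers in a Bxb1-sfGFP-TEVs-SsrA fusion, so cleavage stabilises Bxb1 and speeds flipping of a recombination array, read by NGS. The value is the raw area under the fraction-flipped curve over 0-4 h after rhamnose induction (AUC4h), with ≥20 reads per time point. It is not background-subtracted; inactive controls average about 0.047.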
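Also: Bxb1 expression induced with 0.2% (w/v) L-rhamnose at OD600 near 0.5, cultures sampled hourly, flipped fraction per protease–substrate barcode pair counted by paired-end Illumina sequencing.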

Variant	area with substrate ENLYFCS	area with substrate ENLYFDS	area with substrate ENLYFES	area with substrate ENLYFFS	area with substrate ENLYFIS	area with substrate ENLYFKS	area with substrate ENLYFMS	area with substrate ENLYFNS	area with substrate ENLYFPS	area with substrate ENLYFRS	area with substrate ENLYFTS	area with substrate ENLYFVS	area with substrate ENLYFWS	area with substrate ENLYFYS	area with substrate ENLYFHS	area with substrate ENLYFSS	area with substrate ENLYFLS	area with substrate ENLYFGS
MGESLFKGPRDYNPISSSICHLTNESDGHTTSLYGIGFGPFIITNKHLFRRNNGTLVVQSLHGVFKVKDTTTLQQHLVDGRDMIIIRMPKDFPPFPQKLKFREPQREERICLVTTNFQTKSMSSMVSDTSCTFPSGDGIFWKHWIQTKDGQCGSPLVSTRDGFIVGIHSASNFTNTNNYFTSVPKNFMELLTNQEAQQWVSGWRLNADSVLWGGHKVFMVKPEFPFQPVKEATQL [E224F]	0.057	0.0578	0.0391	0.0683	0.041	0.0329	0.0613	0.0856	0.0496	0.0578	0.0655	0.0529	0.0594	0.0699				
MGESLFKGPRDYNPISSSICHLTNESDGHTTSLYGIGFGPFIITNKHLFRRNNGTLVVQSLHGVFKVKDTTTLQQHLVDGRDMIIIRMPKDFPPFPQKLKFREPQREERICLVTTNFQTKSMSSMVSDTSCTFPSGDGIFWKHWIQTKDGQCGSPLVSTRDGFIVGIHSASNFTNTNNYFTSVPKNFMELLTNQEAQQWVSGWRLNADSVLWGGHKVFMVKPEEPFQPVVEATQL [K230V]	0.0619		0.0672	0.0615	0.049	0.0971	0.0745		0.0581	0.0605	0.0649		0.065	0.0494	0.0598	0.0642		
MGESLFKGPRDYNPISSSICHLTNESDGHTTSLYGIGFGPFIITNKHLFRRNNGTLVVQSLHGVFKVKDTTTLQQHLVDGRDMIIIRMPKDFPPFPQKLKFREPQREERICLVTTNFQTKSMSSMVSDTSCTFPSGDGIFWKHWIQTKDGQCGSPLVSTRDGFIVGIHSASNFTNTNNYFTSVPKNFMELLTNQEAQQWVSGWRLNADSVLWGGHKVFMVKPEEPFQPVKEAKQL [T233K]	0.0685		0.0599	0.0688	0.0598			0.0662	0.0712		0.0649			0.0572		0.0657	0.0444	
MGESLFKGPRDYNPISSSICHLTNESDGHTTSLYGIGFGPFIITNKHLVRRNNGTLVVQSLHGVFKVKDTTTLQQHLVDGRDMIIIRMPKDFPPFPQKLKFREPQREERICLVTTNFQTKSMSSMVSDTSCTFPSGDGIFWKHWIQTKDGQCGSPLVSTRDGFIVGIHSASNFTNTNNYFTSVPKNFMELLTNQEAQQWVSGWRLNADSVLWGGHKVFMVKPEEPFQPVKEATQL [F49V]		0.0427	0.0596		0.0531	0.0563	0.0609	0.051	0.0597	0.0417	0.031		0.0549		0.0818	0.0477	0.0593	0.0888
MGESLFKGPRDYNPISSSICHLTNESDGHTTSLYGIGFGPFIITNKHLFRRNNGTLVVQLLHGVFKVKDTTTLQQHLVDGRDMIIIRMPKDFPPFPQKLKFREPQREERICLVTTNFQTKSMSSMVSDTSCTFPSGDGIFWKHWIQTKDGQCGSPLVSTRDGFIVGIHSASNFTNTNNYFTSVPKNFMELLTNQEAQQWVSGWRLNADSVLWGGHKVFMVKPEEPFQPVKEATQL [S60L]		0.0559	0.0653		0.0488	0.0633	0.0627	0.0638	0.0543			0.0569	0.0643			0.0503		
MGESLFKGPRDYNPISSSICHLTNESDGHTTSLYGIGFGPFIITNKHLFRRNNGTLVVQSLHGVFKVKDSTTLQQHLVDGRDMIIIRMPKDFPPFPQKLKFREPQREERICLVTTNFQTKSMSSMVSDTSCTFPSGDGIFWKHWIQTKDGQCGSPLVSTRDGFIVGIHSASNFTNTNNYFTSVPKNFMELLTNQEAQQWVSGWRLNADSVLWGGHKVFMVKPEEPFQPVKEATQL [T70S]		0.0609	0.0561	0.0551		0.0618	0.0713	0.0539	0.0829	0.0632		0.0709		0.0635	0.0533	0.0556		0.0707
MGESLFKGPRDYNPISSSICHLTNESDGHTTSLYGIGFGPFIITNKHLFRRNNGTLVVQSLHGVFKVKDTTTLQQHLVDGRDMIIIRMPKDFPIFPQKLKFREPQREERICLVTTNFQTKSMSSMVSDTSCTFPSGDGIFWKHWIQTKDGQCGSPLVSTRDGFIVGIHSASNFTNTNNYFTSVPKNFMELLTNQEAQQWVSGWRLNADSVLWGGHKVFMVKPEEPFQPVKEATQL [P94I]		0.0479	0.0556	0.0811	0.0582		0.1	0.0752	0.0471		0.0559	0.0516	0.0698	0.0724	0.0577	0.0737		
MGESLFKGPRDYNPISSSICHLTNESDGHTTSLYGIGFGPFIITNKHLFRRNNGTLVVQSLHGVFKVKDTTTLQQHLVDGRDMIIIRMPKDFPPFPQKLKFREPQREERILLVTTNFQTKSMSSMVSDTSCTFPSGDGIFWKHWIQTKDGQCGSPLVSTRDGFIVGIHSASNFTNTNNYFTSVPKNFMELLTNQEAQQWVSGWRLNADSVLWGGHKVFMVKPEEPFQPVKEATQL [C111L]		0.0431		0.0683	0.0639	0.0794	0.0645		0.0584	0.0423						0.0471		
MGESLFKGPRDYNPISSSICHLTNESDGHTTSLYGIGFGPFIITNKHLFRRNNGTLVVQSLHGVFKVKDTTTLQQHLVDGRDMIIIRMPKDFPPFPQKLKFREPQREERICLVTTNFQTKSMSSMVSDTSCTFPSGLGIFWKHWIQTKDGQCGSPLVSTRDGFIVGIHSASNFTNTNNYFTSVPKNFMELLTNQEAQQWVSGWRLNADSVLWGGHKVFMVKPEEPFQPVKEATQL [D137L]		0.0561			0.0803	0.0631	0.0601	0.0635	0.0561	0.0669	0.059		0.0613					0.074
MGESLFKGPRDYNPISSSICHLTNESDGHTTSLYGIGFGPFIITNKHLFRRNNGTLVVQSLHGVFKVKDTTTLQQHLVDGRDMIIIRMPKDFPPFPQKLKFREPQREERICLVTTNFQTKSMSSMVSDTSCTFPSGDGIFWKCWIQTKDGQCGSPLVSTRDGFIVGIHSASNFTNTNNYFTSVPKNFMELLTNQEAQQWVSGWRLNADSVLWGGHKVFMVKPEEPFQPVKEATQL [H143C]		0.0906		0.0716	0.0591	0.0634	0.0599	0.0593	0.0726	0.0522	0.0454	0.0623		0.0537	0.0616			
